Out of some 360,000 compounds screened, about 2,600 (0.72%) were called active. The inconclusive results got no clear call from the source; some entries with a clear call stand among them for comparison. Calls come from the whole dose curve; as a rule, active = well fitted inhibition curve with a large enough effect; inconclusive = small, poorly fitted or top-dose-only effect; inactive = no such curve, though single readings can be large or run the other way. A potency beside an inconclusive call is a rough fit, not a confirmed value.
assay: Primary qHTS for Inhibitors of ATXN expression; conditions: HEK-293 ATXN2-luciferase reporter, luminescence, 24 h; activity change, negative = inhibition: at 57 µM (top of the series); note: nearly all actives have a fitted effect of over 55% in size
In short: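 qHTS (up to 57 uM final) was run with 24 h compound exposure of reporter cells at 37 °C. Each well was multiplexed: SteadyGlo luminescence measured ATXN2-luciferase expression after a fluorogenic Gly-Phe-AFC viability readout (25 uM final).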
% is set by controls: 0 for no effect and ±100 for the full control effect; potency is the fitted concentration of half-maximal effect; tags give direction and shape of the fitted curve.

Structure (SMILES) | Potency | activity change, negative = inhibition
COc1ccc(/C=C/c2cc(C(=O)O)c3ccccc3n2)cc1 | active: 2.24 µM | –
CN1CCC[C@@H]1CCO[C@](C)(c1ccccc1)c1ccc(Cl)cc1 | active: 25.1 µM | –
CCO[C@@H]1OC(C(=O)O)=C[C@H](C2CCCCC2)[C@H]1CCCO | – | inactive: 5.95%
N#Cc1ccc2sn(-c3ccccc3)c(=O)c2c1 | inconclusive: 39.8 µM [inhibitor, single point] | –
O=C(N[C@H]1C/C=C\C[C@@H](CC(=O)N(CCO)Cc2ccccc2)C(=O)NC[C@H](c2ccccc2)OC1=O)OCC1c2ccccc2-c2ccccc21 | inconclusive: 39.8 µM [inhibitor, single point] | –
Cc1ccc(/C=N/n2c(C)cc(C)c(C#N)c2=O)o1 | inconclusive: 3.16 µM [inhibitor, partial curve] | –
CCCCN(Cc1cc2cc(C)ccc2[nH]c1=O)C(=O)c1cccc(Cl)c1 | – | inactive: 13.6%
Cc1ccc(N2C(=O)CC(c3c[nH]c4ccccc34)C2=O)cc1 (stereo not drawn) | inconclusive: 8.91 µM [inhibitor, single point] | –
COCCn1c(C)cc(C(=O)COC(=O)CNC(=O)c2ccccc2)c1C | inconclusive: 1.89 µM [inhibitor, full curve, poor fit] | –
COc1ccc(-c2csc(NCCc3nc4cc(Cl)c(Cl)cc4n3CCCO)n2)cc1 | inconclusive: 39.8 µM [inhibitor, single point] | –
Cc1ccccc1S(=O)(=O)Cc1ccc(C(=O)N2CCN(c3cccc(C)c3C)CC2)o1 | active: 12.6 µM | –
CCc1c(C)nc2c(Br)cccc2c1SCCC#N | – | inactive: -26.2%
Cc1ccc(NC(=O)Cn2c3ccc(F)cc3c3nc4n(c(=O)c32)CCS4)cc1F | inconclusive: 42.3 µM [inhibitor, partial curve, poor fit] | –
C=C(C)COc1ccc2c(c1)CCC1C2CCC2(C)C(=O)C(=NO)CC12 (stereo not drawn) | inconclusive: 26.7 µM [inhibitor, single point] | –
CCCOc1ccc(N2C(=O)CC(SCCc3nc4ccccc4[nH]3)C2=O)cc1 (stereo not drawn) | inconclusive: 11.9 µM [inhibitor, partial curve, poor fit] | –
Cc1ccc(NS(=O)(=O)c2cc(C(=O)NCCSC3CCCCC3)ccc2C)cc1 | inconclusive: 31.6 µM [inhibitor, single point] | –
CCOC(=O)c1c(C)n(-c2ccc(C)cc2)c2ccc(OCC(O)CNCCCO)cc12 (stereo not drawn) | inconclusive: 21.2 µM [inhibitor, single point] | –
c1ccc(CCn2nnnc2C(c2cccnc2)N2CCN(c3nc4ccccc4s3)CC2)cc1 (stereo not drawn) | inconclusive: 25.1 µM [inhibitor, single point] | –
